Data reported in patent US20230374090A1 (SURROZEN OPERATING, published 2023).

Experiments:
[1] = target: T1, ASGR1 antigen (Homo sapiens (Human), UniProt P07306 62-291, Biotinylated for capture on streptavidin sensors; the site and manner of biotinylation are not stated in the passages seen.); assay: BLI, Octet Red96e, biotinylated ASGR1 on streptavidin sensors, bivalent analyte model; Full R^2 0.9987
T1 construct: also called biotinylated ASGR1
T1 sequence: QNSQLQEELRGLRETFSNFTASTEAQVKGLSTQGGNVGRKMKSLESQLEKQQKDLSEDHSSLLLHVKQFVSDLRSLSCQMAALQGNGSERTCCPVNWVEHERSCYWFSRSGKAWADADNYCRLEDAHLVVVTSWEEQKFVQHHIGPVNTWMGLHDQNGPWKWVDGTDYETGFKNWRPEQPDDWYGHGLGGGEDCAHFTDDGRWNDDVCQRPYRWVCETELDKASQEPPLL
Source text: (§1) FIGS. 39A-C show binding of various Wnt signal enhancing molecules comprising the indicated combinations of point mutations as compared to the initial αASGR1-RSPO2 Wnt signaling enhancer molecule (NG or “wild type”). FIG. 39A is a table showing kinetic fir parameters from the data in FIGS. 39B and 39C. Data was fit using the bivalent analyte model in the ForteBIO Data Analysis Software. FIGS. 39B-39C provide data from serial dilutions of the various Wnt signal enhancing molecules tested for binding using biotinylated ASGR1 captured on streptavidin sensors using the Octet Red96e.

[2] = target: T1, ASGR1 antigen; assay: binding to ASGR1 antigen (Octet binding per paragraph 285/paragraph 287; method not printed on the sheet)
[3] = target: T1, ASGR1 antigen; assay: BLI, Octet Red96e, biotinylated ASGR1 on streptavidin sensors, bivalent analyte model; kdis(1/s); Full R^2 0.9987
Source text: as §1

[4] = target: T1, ASGR1 antigen; assay: ASGR1 binding assay, loading sample bio-ASGR1; Full R^2 0.9987
[5] = target: T1, ASGR1 antigen; assay: ASGR1 binding assay, loading sample bio-ASGR1; kdis(1/s); Full R^2 0.9987

B1: 1R34-DDNN/RA (other)
light: SSELTQDPAVSVALGQTVRITCQGDSLRSYYASWYQQKPGQAPVLVIYGKNNRPSGIPDRFSGSSSGNTASLTITGAQAEDEADYYCNSLERIGYLSYVFGGGTKLTVLGQPKAAPSVTLFPPSSEELQANKATLVCLISDFYPGAVTVAWKADSSPVKAGVETTTPSKQSNNKYAASSYLSLTPEQWKSHRSYSCQVTHEGSTVEKTVAPTECS
heavy: NPICKGCLSCSKDNGCSRCQQKLFFFLRREGMRQYGECLHSCPSGYYGHRAPDMNRCARCRIENCDSCRSKDACTKCKVGFYLHRGRCFDECPDGFAPLEETMECVEGGGGSGSGGSGGGGS[… about 100 residues …][… about 120 residues …][… human IgG1 Fc with changes …]
notes: Anti-ASGR1 IgG1 (N297G) with modified human RSPO2 (F105R, F109A) fused through a linker to the N-terminus of each heavy chain; the heavy entry is the whole fusion; also called NG; wild type
With B1 the Kd [1] was 31.3 nM, the kon [1] was 253000 M⁻¹ s⁻¹ and the Kd [2] was 7.67 nM. It also gave a koff [2] of 0.00181 s⁻¹, a kon [2] of 236000 M⁻¹ s⁻¹ and a koff [3] of 0.00789 s⁻¹. It also gave a Kd [4] of 31.3 nM, a kon [4] of 253000 M⁻¹ s⁻¹ and a koff [5] of 0.00789 s⁻¹.
